In brackets after ≈: the same amount, converted by molar mass.

The conditions of this series: buffer; pH 7.4; 200.0 µM.
For `CCCCn1c(N)c(N(C)C(=O)c2cc3c(F)cccc3s2)c(=O)[nH]c1=O`, the solubility (kinetic) (usually solubility judged after dilution from a stock solution rather than from solid) amounted to 5.8 µg/mL (≈ 14.9 µM).
In turn, `Cc1ccccc1NC(=O)c1ccc2c(c1)C(=O)N(CC(C)C)C2=O` registered a kinetic solubility below 0.4 µg/mL.
`Cc1ccc(CC2CC(=O)N(c3ncccn3)C2=O)cc1` (stereo unspecified): the solubility (kinetic) is above 42.2 µg/mL.
Turning to `COc1ccc(C(=O)N2CCN(c3ncccn3)CC2)cc1`, the kinetic solubility was above 44.8 µg/mL.
With `Nc1nc2ccc(OC(F)(F)F)cc2s1`, the solubility (kinetic) stood at 22.1 µg/mL (≈ 94.4 µM).
The compound `COc1cc(CN=C(C)c2c(O)n(C)c(=O)n(C)c2=O)cc(OC)c1` came in with a solubility (kinetic) of 2 µg/mL (≈ 5.76 µM).
In turn, `COc1ccccc1C(=O)Nc1ccc2ccccc2c1` gave a solubility (kinetic) of 3.2 µg/mL (≈ 11.5 µM). This solubility kinetic lies about 1.6-fold higher than the previous one.
Consider `Fc1ccc(-c2cn3ccccc3n2)cc1`, for which the solubility (kinetic) was 29.9 µg/mL (≈ 141 µM).
`COc1cc(CN2CCc3ccccc3C2)ccc1O` came in with a solubility (kinetic) of 27.8 µg/mL (≈ 103 µM).
Turning to `COc1ccc(Cl)cc1NC(=O)C[n+]1cccc(C)c1.[Cl-]`, the kinetic solubility was above 49.1 µg/mL.
As for `CN1CCN(NC(=O)/C=C/c2cccc([N+](=O)[O-])c2)CC1`, the solubility (kinetic) was above 43.5 µg/mL.
In turn, `CCOC(=O)Nc1ccc(Cc2ccncc2)cc1` gave a solubility (kinetic) above 38.4 µg/mL.
The compound `CC(=O)Nc1nc(CCN2C(=O)c3ccccc3C2=O)cs1` came in with a solubility (kinetic) above 47.3 µg/mL.
For the compound `O=C(NC1CCCCC1)N1CCN(c2ccccc2Cl)CC1`, the kinetic solubility turned out to be 45.5 µg/mL (≈ 141 µM).
`Cl.NCCOc1ccc(C2CCCCC2)cc1` displayed a kinetic solubility of 30.5 µg/mL.
`COc1ccc(OC)c(S(=O)(=O)NC(C)CCc2ccccc2)c1` (stereo unspecified) gave a kinetic solubility of 26.4 µg/mL (≈ 75.5 µM).

These data come from PubChem BioAssay AID1996.
